The chains are these.
B1: TEV protease; numbered along this chain (parent)
chain: MGESLFKGPRDYNPISSSICHLTNESDGHTTSLYGIGFGPFIITNKHLFRRNNGTLVVQSLHGVFKVKDTTTLQQHLVDGRDMIIIRMPKDFPPFPQKLKFREPQREERICLVTTNFQTKSMSSMVSDTSCTFPSGDGIFWKHWIQTKDGQCGSPLVSTRDGFIVGIHSASNFTNTNNYFTSVPKNFMELLTNQEAQQWVSGWRLNADSVLWGGHKVFMVKPEEPFQPVKEATQL

This is one part of the list. Sequences were assembled here from the parent chain. Values near 0.05 are background.

This experiment covers variants of B1. Kind of experiment: raw area under fraction-flipped curve 0-4 h after induction (AUC4h, not background-subtracted), DNA-recorder readout of cleavage of the substrate (dimensionless); higher = more cleavage of the substrate by the protease variant. Conditions: temperature: 34 °C; time window: 0-4 h after rhamnose induction. How it is done: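 In vivo DNA recorder in E. coli TOP10(DE3) ΔrhaA at 34 °C. Each TEVp single-site mutant (parent TEVp 0) is paired with a single-site variant of the 7-mer TEVs (canonical ENLYFQ|S). The substrate sits between flexible linkers in a Bxb1-sfGFP-TEVs-SsrA fusion, so cleavage stabilises Bxb1 and speeds flipping of a recombination array, read by NGS. The value is the raw area under the fraction-flipped curve over 0-4 h after rhamnose induction (AUC4h), with ≥20 reads per time point. It is not background-subtracted; inactive controls average about 0.047.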
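Note: Bxb1 expression induced with 0.2% (w/v) L-rhamnose at OD600 near 0.5, cultures sampled hourly, flipped fraction per protease–substrate barcode pair counted by paired-end Illumina sequencing.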

MGESLFKGPRDYNPISSSICHLTNESDGHTTSLYGIGFGPFIITNKHLFRRNNGTLVVQSLHGVFKVKDTTTLQQHLVDGRDMIIIRMPKDFPPFPQKLKFREPQREERICLVTTNFQTKSLSSMVSDTSCTFPSGDGIFWKHWIQTKDGQCGSPLVSTRDGFIVGIHSASNFTNTNNYFTSVPKNFMELLTNQEAQQWVSGWRLNADSVLWGGHKVFMVKPEEPFQPVKEATQL [M122L]: the “area with substrate ENLYFQA” value stood at 0.0911, the “area with substrate ENLYFQC” value came out at 0.126, the “area with substrate ENLYFQI” value was found to be 0.0545 and the “area with substrate ENLYFQK” value is 0.071. For the same variant, the “area with substrate ENLYFQM” value is 0.0924, the “area with substrate ENLYFQN” value turned out to be 0.0701, the “area with substrate ENLYFQR” value is 0.0567 and the “area with substrate ENLYFQS” value came to 0.106. Besides, the “area with substrate ENLYFQT” value was determined as 0.0655, the “area with substrate ENLYFQV” value worked out at 0.0681, the “area with substrate ENLYFQW” value was 0.061 and the “area with substrate ENLYFQY” value stood at 0.095.
MGESLFKGPRDYNPISSSICHLTNESDGHTTSLYGIGFGPFIITNKHLFRRNNGTLVVQSLHGVFKVKDTTTLQQHLVDGRDMIIIRMPKDFPPFPQKLKFREPQREERICLVTTNFQTKSMSSMVSDTSCTFPSGDGIFWKWWIQTKDGQCGSPLVSTRDGFIVGIHSASNFTNTNNYFTSVPKNFMELLTNQEAQQWVSGWRLNADSVLWGGHKVFMVKPEEPFQPVKEATQL [H143W]: the “area with substrate ENLYFQA” value was determined as 0.0604, the “area with substrate ENLYFQC” value is 0.0642, the “area with substrate ENLYFQD” value worked out at 0.0624 and the “area with substrate ENLYFQF” value came out at 0.0567. In addition, the “area with substrate ENLYFQH” value stood at 0.0632, the “area with substrate ENLYFQK” value is 0.057, the “area with substrate ENLYFQM” value was found to be 0.0598 and the “area with substrate ENLYFQN” value is 0.0722. The “area with substrate ENLYFQP” value came to 0.0477, the “area with substrate ENLYFQR” value worked out at 0.0562, the “area with substrate ENLYFQS” value was determined as 0.0593 and the “area with substrate ENLYFQT” value stood at 0.0516. In addition, the “area with substrate ENLYFQV” value was found to be 0.054, the “area with substrate ENLYFQW” value is 0.066 and the “area with substrate ENLYFQY” value came to 0.0585.
MGESLFKGPRDYNPISSSICHLTNESDGHTTSLYGIGFGPFIITNKHLFRRNNGTLVVQSLHGVFKVKDTTTLQQHLVDGRDMIIIRMPKDFPPFPQKLKFREPQREERICLVTTNFQTKSMSSMRSDTSCTFPSGDGIFWKHWIQTKDGQCGSPLVSTRDGFIVGIHSASNFTNTNNYFTSVPKNFMELLTNQEAQQWVSGWRLNADSVLWGGHKVFMVKPEEPFQPVKEATQL [V126R]: the “area with substrate ENLYFQA” value turned out to be 0.115, the “area with substrate ENLYFQC” value was found to be 0.141, the “area with substrate ENLYFQD” value was found to be 0.073 and the “area with substrate ENLYFQF” value was found to be 0.0851. In addition, the “area with substrate ENLYFQG” value amounted to 0.112, the “area with substrate ENLYFQH” value was 0.0798, the “area with substrate ENLYFQI” value turned out to be 0.0589 and the “area with substrate ENLYFQK” value is 0.0835. Moreover, the “area with substrate ENLYFQL” value is 0.0623, the “area with substrate ENLYFQM” value was found to be 0.0995, the “area with substrate ENLYFQN” value was 0.0655 and the “area with substrate ENLYFQP” value turned out to be 0.0718. In addition, the “area with substrate ENLYFQR” value came to 0.0595, the “area with substrate ENLYFQS” value came to 0.118, the “area with substrate ENLYFQT” value turned out to be 0.0708 and the “area with substrate ENLYFQV” value was determined as 0.0539. Moreover, the “area with substrate ENLYFQW” value amounted to 0.0674 and the “area with substrate ENLYFQY” value was 0.0703.
Consider MGESLFKGPRDYNPISSSICHLTNESDGHTTSLYGIGMGPFIITNKHLFRRNNGTLVVQSLHGVFKVKDTTTLQQHLVDGRDMIIIRMPKDFPPFPQKLKFREPQREERICLVTTNFQTKSMSSMVSDTSCTFPSGDGIFWKHWIQTKDGQCGSPLVSTRDGFIVGIHSASNFTNTNNYFTSVPKNFMELLTNQEAQQWVSGWRLNADSVLWGGHKVFMVKPEEPFQPVKEATQL [F38M], for which the “area with substrate ENLYFQA” value is 0.0929, the “area with substrate ENLYFQC” value came out at 0.113, the “area with substrate ENLYFQD” value was 0.0603 and the “area with substrate ENLYFQF” value came out at 0.066. Moreover, the “area with substrate ENLYFQG” value turned out to be 0.0867, the “area with substrate ENLYFQI” value came out at 0.0486, the “area with substrate ENLYFQK” value was determined as 0.0577 and the “area with substrate ENLYFQL” value turned out to be 0.0709. For the same variant, the “area with substrate ENLYFQM” value amounted to 0.0644, the “area with substrate ENLYFQN” value is 0.0754, the “area with substrate ENLYFQP” value is 0.0589 and the “area with substrate ENLYFQR” value came out at 0.05. For the same variant, the “area with substrate ENLYFQS” value came to 0.0899, the “area with substrate ENLYFQT” value came to 0.0559, the “area with substrate ENLYFQV” value is 0.0701 and the “area with substrate ENLYFQW” value came to 0.0634.
Take MGESLFKGPRDYNPISSSICHLTNESDGHTTSLYGIGFGPFIITNKHLFRRNNGTLVVQSLHGVFKVKDTTTLQQHDVDGRDMIIIRMPKDFPPFPQKLKFREPQREERICLVTTNFQTKSMSSMVSDTSCTFPSGDGIFWKHWIQTKDGQCGSPLVSTRDGFIVGIHSASNFTNTNNYFTSVPKNFMELLTNQEAQQWVSGWRLNADSVLWGGHKVFMVKPEEPFQPVKEATQL [L77D]: the “area with substrate ENLYFQA” value came to 0.0863, the “area with substrate ENLYFQC” value came out at 0.0657, the “area with substrate ENLYFQF” value came out at 0.0542 and the “area with substrate ENLYFQG” value came to 0.0683. Also, the “area with substrate ENLYFQH” value came to 0.0668, the “area with substrate ENLYFQI” value came to 0.0574, the “area with substrate ENLYFQK” value came out at 0.0737 and the “area with substrate ENLYFQL” value was 0.055. The “area with substrate ENLYFQM” value came to 0.0537, the “area with substrate ENLYFQN” value stood at 0.0824, the “area with substrate ENLYFQR” value was 0.0592 and the “area with substrate ENLYFQS” value was determined as 0.0676. Moreover, the “area with substrate ENLYFQT” value was 0.0524, the “area with substrate ENLYFQV” value was determined as 0.0617, the “area with substrate ENLYFQW” value stood at 0.063 and the “area with substrate ENLYFQY” value is 0.0514.
As to MGESLFKGPRDYNPISSSICHLTNESDGHTTSLYGIGFGPFIITNKHLFRRNNGTLVVQSLHGVFKVKDTTTLQQHLVDGRDMIIIRMPKDFPPFPQKLKFREPQREERICLVTTNFQTKSMSSMVSDTSCTFPSGDGIFWKHWIQTKDGQCGSPIVSTRDGFIVGIHSASNFTNTNNYFTSVPKNFMELLTNQEAQQWVSGWRLNADSVLWGGHKVFMVKPEEPFQPVKEATQL [L156I], the “area with substrate ENLYFQA” value was determined as 0.092, the “area with substrate ENLYFQC” value was found to be 0.127, the “area with substrate ENLYFQD” value came to 0.0797 and the “area with substrate ENLYFQE” value came out at 0.0666. Besides, the “area with substrate ENLYFQF” value stood at 0.0786, the “area with substrate ENLYFQG” value is 0.108, the “area with substrate ENLYFQI” value worked out at 0.053 and the “area with substrate ENLYFQL” value amounted to 0.0741. Besides, the “area with substrate ENLYFQM” value is 0.102, the “area with substrate ENLYFQN” value was found to be 0.0632, the “area with substrate ENLYFQP” value is 0.0687 and the “area with substrate ENLYFQQ” value came to 0.0699. For the same variant, the “area with substrate ENLYFQR” value was found to be 0.063, the “area with substrate ENLYFQS” value amounted to 0.097, the “area with substrate ENLYFQT” value amounted to 0.0573 and the “area with substrate ENLYFQV” value was determined as 0.068. Further, the “area with substrate ENLYFQY” value stood at 0.0691.
As for MGESLFKGPRDYNPISSSICHLTNESDGHTTSLYGIGFGPFIITNKHLFRRNNGTLVVQSLHGVFKVKDTTTLQQHLVDGRDMIIIRMPKDFPPFPQKLKFREPQREERICLVTTNFQTKSMSSMVSDTSCTFPSGDGIFWKHWIQTKDGQCGSPLVSTRDGFIVGIHSASNFTNTNNYFTSVPKNFYELLTNQEAQQWVSGWRLNADSVLWGGHKVFMVKPEEPFQPVKEATQL [M188Y], the “area with substrate ENLYFQA” value turned out to be 0.0853, the “area with substrate ENLYFQF” value was determined as 0.0648, the “area with substrate ENLYFQL” value came to 0.0542 and the “area with substrate ENLYFQN” value is 0.0784. Further, the “area with substrate ENLYFQR” value was 0.063, the “area with substrate ENLYFQS” value was 0.104, the “area with substrate ENLYFQT” value is 0.065 and the “area with substrate ENLYFQW” value was 0.0745.
For MGESLFKGPRDYNPISSSICHLTNESDGHKTSLYGIGFGPFIITNKHLFRRNNGTLVVQSLHGVFKVKDTTTLQQHLVDGRDMIIIRMPKDFPPFPQKLKFREPQREERICLVTTNFQTKSMSSMVSDTSCTFPSGDGIFWKHWIQTKDGQCGSPLVSTRDGFIVGIHSASNFTNTNNYFTSVPKNFMELLTNQEAQQWVSGWRLNADSVLWGGHKVFMVKPEEPFQPVKEATQL [T30K], the “area with substrate ENLYFQA” value worked out at 0.0913, the “area with substrate ENLYFQC” value came to 0.111, the “area with substrate ENLYFQE” value stood at 0.042 and the “area with substrate ENLYFQF” value was found to be 0.0834. The “area with substrate ENLYFQG” value is 0.101, the “area with substrate ENLYFQH” value was 0.0615, the “area with substrate ENLYFQI” value came out at 0.0618 and the “area with substrate ENLYFQK” value amounted to 0.0584. Besides, the “area with substrate ENLYFQL” value is 0.0494, the “area with substrate ENLYFQM” value is 0.0761, the “area with substrate ENLYFQN” value is 0.0842 and the “area with substrate ENLYFQP” value was found to be 0.0402. Besides, the “area with substrate ENLYFQR” value came to 0.0557, the “area with substrate ENLYFQS” value was determined as 0.0963, the “area with substrate ENLYFQT” value was 0.0658 and the “area with substrate ENLYFQW” value is 0.0644. For the same variant, the “area with substrate ENLYFQY” value is 0.096.
On to MGESLFKGPRDYNPISSSICHLTNESDGHTTSLYGIGFGPFIITNKHLFRRNNGTLVVQSLHGVFKVKDTTTLQQHLVDGRDMIIIRMPKDFPPFPQKLKFREPQREERICLVTTNFQTKSMSSMVSDTSCTFPSGDGIFWKHWIQTKDGQCGSPLVSTRDGFIVGIHSASNFTNTNNYFTSVPKWFMELLTNQEAQQWVSGWRLNADSVLWGGHKVFMVKPEEPFQPVKEATQL [N186W], for which the “area with substrate ENLYFQA” value was determined as 0.116, the “area with substrate ENLYFQC” value was 0.089, the “area with substrate ENLYFQD” value was found to be 0.0592 and the “area with substrate ENLYFQF” value was determined as 0.0794. The “area with substrate ENLYFQH” value was determined as 0.0864, the “area with substrate ENLYFQK” value came out at 0.0584, the “area with substrate ENLYFQM” value is 0.0805 and the “area with substrate ENLYFQN” value stood at 0.0593. In addition, the “area with substrate ENLYFQR” value came to 0.05, the “area with substrate ENLYFQS” value was 0.0894 and the “area with substrate ENLYFQW” value was 0.0576.

Values taken from the supplement of paper PMC12217912.
